Hit rate of the full screen: of about 1,200 compounds, about 10 (0.8%) were called active. Inconclusive results (about 4%) are left out. Calls follow the shape of the dose curve; as a rule, active = well fitted inhibition curve with a large enough effect; inconclusive = small, poorly fitted or top-dose-only effect; inactive = no such curve, though single readings can be large or run the other way. Some of the results follow.

This note sets out measurements from PubChem BioAssay AID651567 (National Center for Advancing Translational Sciences (NCATS), 2012).
% is scaled to controls: 0 for no effect and ±100 for the full control effect.

A short description of the test: qHTS Assay to Find Inhibitors of Chronic Active B-Cell Receptor Signaling: Hit Validation in OCI-Ly3 Assay. The following applies: OCI-Ly3 IkB-luciferase reporter, Chroma-Glo luminescence, 4 h; series mostly up to 46.1 µM; activity change, negative = inhibition: at the top concentration. The gist of the method:
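Readout is dual-colour luminescence: IkB-alpha-luciferase fusion (green) against unfused luciferase (red), plus their ratio, scaled between basal cells and 10 uM MG-132. OCI-Ly3 cells, 0.5% FBS IMDM, compound with doxycycline (80ng/ml solution), 4 hrs at 37C; curves fitted and classed.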
(In general: Quantitative high-throughput screening tests each substance at several concentrations.)
`COc1cc(NC(=O)COC(=O)Cc2ccc(-c3ccccc3)cc2)cc(OC)c1`: the “activity change, negative = inhibition” value is inactive: -2.72%.

For `CCCSc1nc(C)c(C(C)=O)cc1C#N`, the “activity change, negative = inhibition” value was inactive: -0.455%.

With `COCCN(Cc1cc2cc(C)cc(C)c2nc1Cl)C(=O)Nc1ccccc1`, the “activity change, negative = inhibition” value was inactive: -1.1%.

As for `CCOC(=O)c1ccc(-c2c(-c3cc(OC)c(OC)c(OC)c3)noc2C)cc1F`, the “activity change, negative = inhibition” value was inactive: -3.94%.

In the case of `CC(C)Oc1ccccc1C1CC(=O)Nc2cc3c(cc21)OCCO3` (configuration not stated), the “activity change, negative = inhibition” value was inactive: -4.7%.

Take `CCN(CC)C(=S)NC(=O)c1ccc(F)cc1`: the “activity change, negative = inhibition” value is inactive: -0.736%.

`CCOc1cc(/C=C2\CN(C)C/C(=C\c3ccc(O)c(OCC)c3)C2=O)ccc1O`: the “activity change, negative = inhibition” value is inactive: -16.9%.

Regarding `CCOC(=O)c1c(C)oc2c1cc(NS(=O)(=O)c1ccc(C(=O)O)cc1)c1ccccc12`, the “activity change, negative = inhibition” value was inactive: -5.36%.

With `COc1ccccc1-c1nnc(Nc2nc3c(OC)cccc3s2)o1`, the “activity change, negative = inhibition” value is inactive: 14.5%.

With `CC1=C(C(=O)Nc2ccc(CC(=O)NCc3ccc(OC(C)C)cc3)cc2)SCCO1`, the “activity change, negative = inhibition” value was inactive: -3%.

`CCc1ccc(NC(=O)C(C)OC(=O)/C=C/c2ccc(O)c(OC)c2)cc1` (configuration not stated): the “activity change, negative = inhibition” value was inactive: -10.2%.

For `COc1cc(C(=O)N/N=C(\C)Cc2ccccc2)cc(OC)c1OC`, the “activity change, negative = inhibition” value was inactive: -1.22%.

Consider `COc1cc(/C=C2/S/C(=N/S(=O)(=O)c3ccccc3)NC2=O)c([N+](=O)[O-])cc1OC`, for which the “activity change, negative = inhibition” value was inactive: -6.81%.

On to `COc1ccccc1NC(=O)N1CCC(c2nc3cc(C)c(C)cc3[nH]2)CC1`, for which the “activity change, negative = inhibition” value was inactive: -3.12%.

Regarding `CC1=C/C(=N\NC(=S)NCc2ccccc2)CC1`, the “activity change, negative = inhibition” value is inactive: -3.6%.

As for `COc1cc(C(=O)N/N=C/c2sccc2C)cc(OC)c1OC`, the “activity change, negative = inhibition” value was inactive: -3.66%.

`CCCCC[C@H](O)/C=C/[C@@H]1[C@@H](C/C=C\CCCC(=O)O)[C@@H](O)C[C@H]1O`: the “activity change, negative = inhibition” value is inactive: -0.871%.

`Cc1cc(C)c2nc3sc(C(=O)N4CCOCC4)c(N)c3cc2c1`: the “activity change, negative = inhibition” value is inactive: -8.28%.

Turning to `COc1ccc(CCNC(=O)c2cnc3scc(C)n3c2=O)cc1OC`, the “activity change, negative = inhibition” value was inactive: -0.161%.

On to `O=C(Oc1c(CN2CCOCC2)cc(Cl)c2cccnc12)c1ccccc1Cl`, for which the “activity change, negative = inhibition” value is inactive: -5.93%.

As for `COc1cc(C(=O)N/N=C/c2cc([N+](=O)[O-])cs2)cc(OC)c1OC`, the “activity change, negative = inhibition” value was inactive: -0.917%.

Regarding `CCOC(=O)C(C)Oc1cccc2c(=O)n(CC(=O)NCc3ccco3)ccc12` (configuration not stated), the “activity change, negative = inhibition” value was inactive: -1.21%.

For `Cc1ccc(NC(=S)N/N=C/c2c(Cl)cccc2Cl)c(C)c1`, the “activity change, negative = inhibition” value is inactive: -4.26%.

On to `O=S1(=O)C=C(Sc2nc3cc(Cl)ccc3o2)c2ccccc21`, for which the “activity change, negative = inhibition” value was inactive: 1.19%.

Regarding `CCN(CC)c1ccc2c(c1)OC(N)=C(C#N)C2c1cccnc1` (configuration not stated), the “activity change, negative = inhibition” value was inactive: -5.73%.

In the case of `COc1ccc(OCCOC(=O)c2[nH]c(C)c(C(C)=O)c2C)cc1`, the “activity change, negative = inhibition” value is inactive: -0.836%.

With `COc1ccc(C2CC(c3ccc(OC)c(OC)c3)=NN2C(=O)c2ccccc2)cc1` (configuration not stated), the “activity change, negative = inhibition” value is inactive: -0.859%.

For the molecule `Cc1[nH]n(C(N)=S)c(=O)c1N=Nc1ccc2ccccc2c1`, the “activity change, negative = inhibition” value was inactive: -3.53%.

On to `CSc1nc(SCC(=O)NCc2ccco2)c2c3c(sc2n1)COC(C)(C)C3`, for which the “activity change, negative = inhibition” value was inactive: -2.6%.

As to `Cc1ccccc1C(=O)N1CCC(C(=O)N2CCN(Cc3ccc4c(c3)OCO4)CC2)CC1`, the “activity change, negative = inhibition” value was inactive: 0.546%.

For `N#CCSc1nc(N)c(C#N)c(C2CCCCC2)c1C#N`, the “activity change, negative = inhibition” value is inactive: -1.6%.

In the case of `O=C(Cc1cccs1)N/N=C/C=C/c1ccco1`, the “activity change, negative = inhibition” value is inactive: -3.11%.

`CC[C@]12c3[nH]c4cc(CCC(=O)N(C)C)ccc4c3CCN1C(=O)[C@@H](CC(=O)NCC13CC4CC(CC(C4)C1)C3)C[C@@H]2C(=O)N1CCN(C(=O)c2ccco2)CC1`: the “activity change, negative = inhibition” value is inactive: -3.16%.

On to `CCOc1ccccc1OCC(=O)N/N=C(\C)Cc1ccc(OC)cc1`, for which the “activity change, negative = inhibition” value is inactive: -0.43%.

For the molecule `O=C(CSc1cccc[n+]1[O-])c1ccccc1Br`, the “activity change, negative = inhibition” value is inactive: -1.23%.

On to `Cc1cccc(C(=O)N[C@H](C(=O)Nc2nc3ccccc3[nH]2)C(C)C)c1`, for which the “activity change, negative = inhibition” value was inactive: -5.47%.

As to `CNC(=S)N/N=C(\C)c1cccc([N+](=O)[O-])c1`, the “activity change, negative = inhibition” value is inactive: -0.379%.

As for `COc1cc(C(=O)NNC(=S)Nc2ccc(S(N)(=O)=O)cc2)cc(OC)c1OC`, the “activity change, negative = inhibition” value was inactive: -0.879%.

In the case of `CCCC(=O)Nc1ncnc2c1ncn2[C@@H]1O[C@@H]2COP(=O)(O)O[C@H]2[C@H]1OC(=O)CCC`, the “activity change, negative = inhibition” value is inactive: -0.475%.

For the molecule `CC(C)(CNC(=O)CO/N=C1/C=C2CCC3C(C(O)C[C@@]4(C)C3CC[C@]4(O)C(=O)CO)[C@@]2(C)CC1)C(O)C(=O)O` (some centres not stated), the “activity change, negative = inhibition” value was inactive: -1.46%.

Turning to `CC(/C=N/NC(=O)c1cc(-c2ccncc2)nc2ccccc12)=C\c1ccco1`, the “activity change, negative = inhibition” value was inactive: -3.13%.

Turning to `COc1ccc(C(=O)N[C@H](C(=O)Nc2nc3ccccc3[nH]2)C(C)C)cc1`, the “activity change, negative = inhibition” value was inactive: 26%.

Take `Cc1ccc2[nH]c(C(=O)N/N=C/c3ccccc3C(=O)O)c(-c3ccccc3)c2c1`: the “activity change, negative = inhibition” value was inactive: -1.78%.

In the case of `COc1ccccc1/C=N/NC(=S)Nc1cccnc1`, the “activity change, negative = inhibition” value was inactive: -0.287%.

Regarding `CN[C@H]1CCc2cc(OC)c(OC)c(OC)c2-c2ccc(N(C)CC(OC)OC)c(=O)cc21`, the “activity change, negative = inhibition” value was inactive: -2.95%.

`C/C(=N\NC(N)=S)c1cc(-c2ccccc2)c(-c2ccccc2)s1`: the “activity change, negative = inhibition” value was inactive: -0.95%.

`COc1ccc(CNC(=O)/C(C#N)=C/c2cccc(OC)c2OC)cc1`: the “activity change, negative = inhibition” value was inactive: -1.25%.

`CCOC(=O)C(C)Oc1cccc2c(=O)n(CC(=O)NCc3ccccc3)ccc12` (configuration not stated): the “activity change, negative = inhibition” value is inactive: -2.48%.

In the case of `CSc1nc(N(C)NC(=O)c2cccc(C)c2)c2ccccc2n1`, the “activity change, negative = inhibition” value is inactive: -1.67%.

Consider `Cn1c(=S)[nH]c2c(c1=O)C(C)(C)Cc1ccccc1-2`, for which the “activity change, negative = inhibition” value was inactive: -1.63%.

As to `COc1ccc(N=N/C(=C\O)C(=O)c2ccco2)cc1`, the “activity change, negative = inhibition” value is inactive: 0.48%.

With `COc1ccc(-c2cccc(-c3cc(=O)oc4cc(OC)cc(OC)c34)c2)cc1`, the “activity change, negative = inhibition” value was inactive: -2.98%.
